{"source": "the supplement of paper PMC8183993", "note": "Values joined by “and” are separate entries in the source; they are usually repeats but may differ in a detail not shown here. Identical values can stand only once. Counter-ions that a name gives are not always drawn. ± gives the standard deviation of the averaged measurements. Over roughly 3,200 compounds, “nuclei count (viability) relative to DMSO” has its median near 99; the lowest 2% begin near 16. The list shows a part of the results.", "data": [{"tested_on": "U2OS", "assay": "nuclei count (viability) relative to DMSO (% of DMSO); higher = more viable cells", "settings": "10 µM; 24 h", "protocol": "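Primary image-based screen in U2OS cells: compounds at 10 uM for 24 h, then a 1 h o-propargyl-puromycin (OPP) pulse, click labelling, and high-throughput microscopy. Mean cytoplasmic OPP intensity and nuclei count were normalised to DMSO wells within each plate (DMSO = 100) and averaged over triplicate plates.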", "values": [{"compound": "Nc1c(O)cc(O)cc1C=Cc1ccc(O)cc1", "note": "[Aminoresveratrol sulfate]", "nuclei count": 86.7}, {"compound": "Nc1nc(=O)n([C@@H]2CS[C@H](CO)O2)cc1F", "note": "[(-)-Emtricitabine]", "nuclei count": 91}, {"compound": "COc1ccc(Cl)cc1C(=O)NCCc1ccc(S(=O)(=O)NC(=O)NC2CCCCC2)cc1", "note": "[Glyburide]", "nuclei count": 102}, {"compound": "COc1ccc(Cl)cc1C(=O)NCCc1ccc(S(=O)(=O)NC(=O)NC2CCCCC2)cc1", "note": "[Glibenclamide]", "nuclei count": "103 ± 4.1"}, {"compound": "C[C@@H]1C/C=C/C=C/C=C/C=C/[C@H](O[C@@H]2O[C@H](C)[C@@H](O)[C@H](N)[C@@H]2O)C[C@@H]2O[C@](O)(C[C@@H](O)C[C@H]3O[C@@H]3/C=C/C(=O)O1)C[C@H](O)[C@H]2C(=O)O", "note": "[Natamycin (Pimaricin)]", "nuclei count": 108}, {"compound": "CC(C(O)c1ccc(O)cc1)N1CCC(Cc2ccccc2)CC1", "note": "(centres undefined) [Ifenprodil hemitartrate]", "nuclei count": 88.8}, {"compound": "CC(C(O)c1ccc(O)cc1)N1CCC(Cc2ccccc2)CC1", "note": "(centres undefined) [Ifenprodil tartrate]", "nuclei count": 109}, {"compound": "CCCn1c(=O)c(C)cn2nc(N)nc12", "nuclei count": 81.5}, {"compound": "CCn1c(=O)c2c(nc(/C=C/c3ccc(OC)c(OC)c3)n2C)n(CC)c1=O", "note": "[Istradefylline (KW-6002)]", "nuclei count": 92.8}, {"compound": "Cc1ccc(OCC(O)C(C)NC(C)C)c2c1CCC2", "note": "(centres undefined) [ICI-118,551 hydrochloride]", "nuclei count": 99.7}, {"compound": "c1ccc2cc(C3=NCCN3)ncc2c1", "note": "[BU 226 hydrochloride]", "nuclei count": 105}, {"compound": "CC1=NN(c2ccc(C)c(C)c2)C(=O)/C1=N\\Nc1cccc(-c2cccc(C(=O)O)c2)c1O", "nuclei count": 98.3}, {"compound": "COC(=O)N/N=C/c1c[n+]([O-])c2ccccc2[n+]1[O-]", "note": "[Carbadox]", "nuclei count": 84.8}, {"compound": "CN(C(=O)CN(CCO)CC(=O)N(C)C(C)(C)Cc1ccccc1)C(C)(C)Cc1ccccc1", "note": "[Oxethazaine]", "nuclei count": 97.9}, {"compound": "Cc1cc(C)nc(NS(=O)(=O)c2ccc(N)cc2)n1", "note": "[Sulfamethazine sodium salt]", "nuclei count": 104}, {"compound": "Cc1cc(C)nc(NS(=O)(=O)c2ccc(N)cc2)n1", "note": "[Sulfamethazine]", "nuclei count": 103}, {"compound": "CCN(c1ccccc1)c1cc(=NC)n(C)c(C)n1", "nuclei count": 89.5}, {"compound": "COc1cc(NS(=O)(=O)c2ccc(N)cc2)ncn1", "note": "[Sulfamonomethoxine]", "nuclei count": 110}, {"compound": "CC1(C)O[C@@H]2C[C@H]3[C@@H]4C[C@H](F)C5=CC(=O)C=C[C@]5(C)[C@@]4(F)[C@@H](O)C[C@]3(C)[C@]2(C(=O)CO)O1", "note": "[Fluocinolone acetonide (Flucort-N)]", "nuclei count": 107}, {"compound": "CC1(C)O[C@@H]2C[C@H]3[C@@H]4C[C@H](F)C5=CC(=O)C=C[C@]5(C)[C@@]4(F)[C@@H](O)C[C@]3(C)[C@]2(C(=O)CO)O1", "note": "[Fluocinolone acetonide]", "nuclei count": 97.2}, {"compound": "CC(C)[C@H](N)C(=O)OCCOCn1cnc2c(=O)nc(N)[nH]c21", "note": "[Valacyclovir hydrochloride]", "nuclei count": 95.8}, {"compound": "CN1CCN2c3ncccc3Cc3ccccc3C2C1", "note": "(centres undefined) [Mirtazepine]", "nuclei count": 83}, {"compound": "CN1CCN2c3ncccc3Cc3ccccc3C2C1", "note": "(centres undefined) [Mirtazapine]", "nuclei count": 107}, {"compound": "CC(C)N(CC[C@H](c1ccccc1)c1cc(CO)ccc1O)C(C)C", "nuclei count": 98.7}, {"compound": "CCOC(=O)/C=C(C)/C=C/C=C(C)/C=C/c1c(C)cc(OC)c(C)c1C", "note": "[Etretinate]", "nuclei count": 91.8}, {"compound": "CC(C)(C)c1cc(NC(=O)Nc2ccc(-c3cn4c(n3)sc3cc(OCCN5CCOCC5)ccc34)cc2)no1", "note": "[Quizartinib (AC220)]", "nuclei count": 59.4}, {"compound": "CN1CCN(c2ccc(-c3cccc(CN4CCOCC4)c3)cc2NC(=O)c2c[nH]c(=O)cc2C(F)(F)F)CC1", "nuclei count": 108}, {"compound": "Nc1nc2c(cnn2CCc2ccccc2)c2nc(-c3ccco3)nn12", "nuclei count": 102}, {"compound": "O=C(/C=C/c1cccc(S(=O)(=O)Nc2ccccc2)c1)NO", "note": "[Belinostat (PXD101)]", "nuclei count": 30}, {"compound": "C=CCOc1ccccc1OCC(O)CNC(C)C", "note": "(centres undefined) [Oxprenolol hydrochloride]", "nuclei count": 105}, {"compound": "NC[C@H]1O[C@H](O[C@H]2[C@H](O)[C@@H](O[C@H]3O[C@H](CO)[C@@H](O)[C@H](N)[C@H]3O)[C@H](N)C[C@@H]2N)[C@H](N)C[C@@H]1O", "note": "[Tobramycin]", "nuclei count": "102 ± 2.4"}, {"compound": "Cc1c(N)c(=O)n(-c2ccccc2)n1C", "note": "[Ampyrone]", "nuclei count": 91.4}, {"compound": "CC#CCn1c(N2CCC[C@@H](N)C2)nc2c1c(=O)n(Cc1nc(C)c3ccccc3n1)c(=O)n2C", "note": "[Linagliptin (BI-1356)]", "nuclei count": 105}, {"compound": "CCN(CC)CCOCCOC(=O)C1(c2ccccc2)CCCC1", "note": "[Carbetapentane citrate]", "nuclei count": "98 ± 3.8"}, {"compound": "COc1cc(NC(=O)c2ccccn2)ccc1Cl", "nuclei count": 110}, {"compound": "CCN(CCCCOC(=O)c1ccc(OC)c(OC)c1)C(C)Cc1ccc(OC)cc1", "note": "(centres undefined) [Mebeverine hydrochloride]", "nuclei count": 112}, {"compound": "Cc1cc(C(C)(C)C)cc(C)c1CC1=NCCN1", "note": "[Xylometazoline hydrochloride]", "nuclei count": 88.4}, {"compound": "CCN(CC)C(=O)C1(c2ccccc2)CC1CN", "note": "(centres undefined) [Milnacipran HCl]", "nuclei count": 94}, {"compound": "CC(C)(CO)[C@@H](O)C(=O)NCCC(=O)O", "note": "[Pantothenic acid (pantothenate)]", "nuclei count": 100}, {"compound": "O=c1nc2ccccc2c2n1CC(CN1CCN(c3ccccc3)CC1)N2", "note": "(centres undefined)", "nuclei count": 100}, {"compound": "O=P(O)(O)C(O)(Cn1ccnc1)P(=O)(O)O", "note": "[Zoledronic Acid (Zoledronate)]", "nuclei count": 99.2}, {"compound": "N#C/C(=C(/N)Sc1ccc(N)cc1)c1ccccc1C(F)(F)F", "nuclei count": "100 and 106"}, {"compound": "COc1cc2nc(N3CCN(C(=O)C4COc5ccccc5O4)CC3)nc(N)c2cc1OC", "note": "(centres undefined) [Doxazosin mesylate]", "nuclei count": 110}, {"compound": "O=c1c(O)c(-c2ccc(O)cc2)oc2cc(O)cc(O)c12", "note": "[Kaempferol]", "nuclei count": 102}, {"compound": "CCN(CC)C(=O)Nc1ccc(OCC(O)CNC(C)(C)C)c(C(C)=O)c1", "note": "(centres undefined) [Celiprolol HCl]", "nuclei count": 106}, {"compound": "N[C@H]1CONC1=O", "note": "[(S)-(-)-Cycloserine]", "nuclei count": 96.3}, {"compound": "CCCCC1C(=O)N(c2ccccc2)N(c2ccc(O)cc2)C1=O", "note": "(centres undefined) [Oxyphenbutazone]", "nuclei count": 42}, {"compound": "CNC(=O)c1ccc(N2C(=S)N(c3ccc(C#N)c(C(F)(F)F)c3)C(=O)C2(C)C)cc1F", "note": "[MDV3100 (Enzalutamide)]", "nuclei count": 100}, {"compound": "COc1cc(OC)c(NC(=O)Nc2cc(C)on2)cc1Cl", "nuclei count": 96.3}]}]}
